In all, about 360,000 compounds went through this assay and about 11,000 (3.1%) were called active. Inconclusive results, whose numbers are uncertain, are shown with a selection of clear calls. Calls follow the shape of the dose curve; as a rule, active = well fitted inhibition curve with a large enough effect; inconclusive = small, poorly fitted or top-dose-only effect; inactive = no such curve, though single readings can be large or run the other way. Potencies of inconclusive entries are left out as doubtful fits.
Molecular target: Schistosoma mansoni thioredoxin glutathione reductase (TGR) (UniProt Q962Y6)
Test: qHTS Assay for the Inhibitors of Schistosoma Mansoni Peroxiredoxins; also: nearly all actives have a fitted effect of over 60% in size
Conditions: purified TGR, DTNB reduction, TNB absorbance 405 nm; activity change, negative = inhibition: at 114 µM (top of the series) unless noted
Outline: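 TGR 20 nM + NADPH 100 uM (dispensed conc.), cpd preinc 15 min RT; start with NADPH (500 uM addition) then DTNB (15 mM addition). Kinetic TNB absorbance, 405 nm filter. Four-parameter Hill fit across titration.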
% is scaled to controls: 0 for no effect and ±100 for the full control effect; potency is read from the fitted curve at half-maximal effect; tags tell the direction and shape of the fitted curve.

Structure (SMILES)	Potency	activity change, negative = inhibition
COC(=O)CC1Oc2ccc(Cl)cc2-n2cc(-c3ccc(C)cc3)nc21 (centres undefined)	inconclusive [inhibitor, single point]	
O=C(CN1CCN(c2ccccn2)CC1)NC1CCCC1	inconclusive [inhibitor, single point]	
CCN(Cc1ccc(O)cc1)CC1CCCN(CCc2cccc(F)c2)C1 (centres undefined)	inconclusive [inhibitor, partial curve]	
Cc1ccc(N2C(=O)CC3(CCCC3)CC2=O)cc1		inactive: -5.27%
O=C1NC(c2ccncc2)Nc2sc3c(c21)CCCC3 (centres undefined)	inconclusive [inhibitor, partial curve]	
Cc1nn(CCC(=O)Nc2cccc(C#N)c2)c(C)c1S(=O)(=O)N1CCC(C)CC1	inconclusive [inhibitor, single point]	
CC(=O)Nc1cccc(NC(=S)Nc2cccc3ccccc23)c1	inconclusive [inhibitor, partial curve]	
CCN1CCN(c2ccc(S(=O)(=O)N(CC)CC)cc2[N+](=O)[O-])CC1	inconclusive [inhibitor, partial curve]	
COc1cc(/C=C/[N+](=O)[O-])ccc1OC(=O)c1cc2ccccc2oc1=O	inconclusive [inhibitor, full curve]	
C=CCOc1ccc(C2=NOC(C(=O)Nc3ccc4c(c3)OCCO4)C2)cc1OC (centres undefined)	inconclusive [inhibitor, partial curve]	
O=C(CCCN1C(=O)c2ccccc2C1=O)NCC1CCCO1 (centres undefined)	inconclusive [inhibitor, full curve, poor fit]	
CC(=O)c1cccc(NC(=O)CSc2nnc(-c3ccncc3)o2)c1		inactive: -1.17%
CC(C)(C)c1cccc(/C=N/O)c1O	inconclusive [inhibitor, single point]	
COc1ccc(CNC(=O)C(=O)NCC2OCCN2S(=O)(=O)c2ccc(C)cc2)cc1 (centres undefined)		inactive: 0.303%
CCc1ccc(C(=O)NC(=S)Nc2ccc(N3CCOCC3)cc2)cc1	inconclusive [inhibitor, partial curve]	
Cc1oc(-c2ccccc2F)nc1Cn1c(SCc2cccc(Cl)c2)nc2ccncc21	inconclusive [inhibitor, partial curve]	
O=C(CSc1nnc(-c2ccc(S(=O)(=O)N3CCCC3)cc2)o1)NCc1ccco1	active: 44.7 µM	
COCCn1c(=O)[nH]c2cc(C(=O)N3CCN(c4ccc(F)cc4)CC3)ccc2c1=O		inactive: -7.95%
CCc1nn(CC(=O)NCC(C)c2ccccc2)c(=O)c2cc3c(OC)cccc3n12 (centres undefined)	inconclusive [inhibitor, single point]	

Source: PubChem BioAssay AID485364 (National Center for Advancing Translational Sciences (NCATS), 2010)
